Source: article PMC4242493
The other results are listed elsewhere or left out. The list includes weakly bound sequences.

Target: MaxL homodimer (UniProt P61244)
Assay: universal protein-binding microarray (PBM)
Conditions: PBS-based mixture, 10 nM His-tagged protein dimer, 2% milk, 200 ng/uL BSA, 50 ng/uL salmon testes DNA, 0.02% TX-100; detection with Alexa 488 anti-His …; high values mean tight binding; most listed sequences are background and not binding sites; double strand, one strand shown

UniProt P61244, sequence (P61244 whole entry): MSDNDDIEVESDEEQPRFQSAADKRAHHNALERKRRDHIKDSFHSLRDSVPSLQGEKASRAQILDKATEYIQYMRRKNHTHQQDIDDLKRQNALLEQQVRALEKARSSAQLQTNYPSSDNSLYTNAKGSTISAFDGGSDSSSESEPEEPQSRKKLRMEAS

Sequence | binding signal (normalized occupancy)
CCAATGGG | 0.0687
AACTTATA | 0.0773
ACGCTTGA | 0.0824
AACACGAA | 0.0741
CCATTCGC | 0.0743
AACAACTC | 0.0756
CCCGAGGC | 0.0708
GATTTCAA | 0.0687
CCACCTGA | 0.099
AAAGATTG | 0.074
GAGACAAC | 0.0765
AAATGGTA | 0.0806
CTAAGCAC | 0.0741
CACACGGC | 0.0774
AGTTTAAT | 0.0788
CATCCCCG | 0.0773
AAGCTCGT | 0.0735
CGATTCTC | 0.0755
ATATATCG | 0.0769
GGCAGGAA | 0.0711
CTGGCACC | 0.0753
CGTCTGCC | 0.0776
AAATAAAG | 0.0763
CAACTTGA | 0.0718
CACATACC | 0.0797

Sequence | binding signal (normalized occupancy)
GCCAATTA | 0.0802
GCATCAGC | 0.0743
ATAGCAAA | 0.0805
GTGCTTAA | 0.0814
ACGGTATG | 0.0863
GCTAATAC | 0.073
CCTGGCTC | 0.0726
GGTATTTA | 0.0785
GGCTTCAC | 0.07
TAAAACTA | 0.073
GAGTTCCC | 0.0719
AGGGCAGC | 0.0693
CAGCAGCC | 0.0739
CAAGTACC | 0.0765
AGAGCCGC | 0.0694
ATCTAATC | 0.0817
CTCGCTAA | 0.0788
AAGATTGT | 0.0723
AGAAACAC | 0.0789
CTCCTAGA | 0.0723
ATCTTCGC | 0.0811
CTAATGTC | 0.0828
TATGACGA | 0.0799
AATGTATC | 0.0876
AAGTTCGA | 0.0722

Sequence | binding signal (normalized occupancy)
AGGCGGGG | 0.0849
AGTCGGTA | 0.075
GCATAGCC | 0.0775
AGACATGA | 0.0878
ATGTGCGC | 0.0928
CACAGACA | 0.0809
TATCCGAA | 0.0725
CGAAGTCG | 0.0684
CACCCGGA | 0.0742
GAAGAGCA | 0.0777
ATCGGTAG | 0.0791
GATCGGTA | 0.0727
TACTGATA | 0.0818
TAATAAGA | 0.0705
ATCAGGCG | 0.0806
CGTGGCTA | 0.0904
CGCCCCGC | 0.0714
TACCAATA | 0.0774
CGCAGACA | 0.0734
GTTCTGGA | 0.0742
CAATATCA | 0.0847
AGGACAAA | 0.0749
CGAATGTA | 0.0796
GGCAATCA | 0.08
CGGCGGAG | 0.0686

Sequence | binding signal (normalized occupancy)
TGGGAGAA | 0.0747
GTGAGCCA | 0.0856
ACGAGTAA | 0.0802
CTAAAGTC | 0.0656
GGCAGACA | 0.0757
ACAACACG | 0.0955
GCTTGGTA | 0.0733
CTATAGCA | 0.0757
AACGACTA | 0.0757
CAATGTTA | 0.0744
AACAAGAG | 0.0704
GCAGACTA | 0.0685
CTTAACGC | 0.0715
AGCGAGAT | 0.0717
GGACGTAC | 0.0744
GGCCGTGA | 0.0765
AACGTAGA | 0.0771
GCGATAGA | 0.0749
CTCACTAC | 0.0758
CGAGCTAG | 0.0711
AAAAAGGA | 0.0699
AGGTTACC | 0.073
GATAAAAC | 0.0726
ATTCTTAG | 0.0777
AGGGACCA | 0.0749

Sequence | binding signal (normalized occupancy)
ACTTCGAC | 0.0712
ATAAGATA | 0.078
CGGTGCGC | 0.0751
ATCACTAG | 0.0762
AACCCGCA | 0.0735
GAAACTTC | 0.0708
GTACGCGA | 0.0798
AGTAATCG | 0.0737
CAACAACA | 0.081
CGTCTCTC | 0.0706
ACTTGGGA | 0.0685
AGGGGGCG | 0.0785
GCACAGGC | 0.072
ATTAGTGA | 0.0772
ATTCTAAC | 0.078
ATCTGGGC | 0.0708
ACGTTAAT | 0.0786
ATTACTAG | 0.0746
ATACGTAC | 0.0818
AAGCTCAT | 0.0729
CGAAAATA | 0.0753
TAGGGAAA | 0.0792
ATGACTTG | 0.0818
ATGCCTTA | 0.0772
GAGACATC | 0.0756

Sequence | binding signal (normalized occupancy)
ACGGACAC | 0.0767
ATTTTATC | 0.0774
CGAGCAGC | 0.0765
CATTGACC | 0.085
CACGCAAA | 0.0846
CGAGATAA | 0.0811
ATACTTTG | 0.0742
AAGTGTAA | 0.0802
ATAAATAC | 0.0803
CCACGTAC | 0.0867
GACGATGC | 0.0723
AATTTTGA | 0.0693
ACAATTCT | 0.0743
AGATGTCG | 0.0787
ATTTCGTC | 0.0796
CAGCGGAC | 0.0674
TCAACCGA | 0.0694
GAATAGTA | 0.0757
AATTAACT | 0.0771
ACCCGGGG | 0.0709
CCCGGGCA | 0.0688
GATAGACA | 0.0795
CTATTGAG | 0.0738
ACATTACA | 0.0879
AGTGTCAG | 0.0752

Sequence | binding signal (normalized occupancy)
AGTAAGTC | 0.0741
CCACAGGC | 0.0705
CTTGGAGA | 0.0742
ACCACTGC | 0.0776
CGGTTTTA | 0.0708
TGGAGGAA | 0.0776
CAGAAACC | 0.0723
AATCTGGA | 0.0747
GTAACAAC | 0.0728
CCACGTGC | 0.814
ATAGAAGA | 0.0761
ACTAGACT | 0.07
ACAGCAAA | 0.0728
ACAGCCTG | 0.0749
ATAGTTGG | 0.0739
ATAGATAG | 0.0809
GCGTTACA | 0.0854
ACAGCTTC | 0.075
CATAGTTA | 0.0781
ACTACATG | 0.0893
CTCAAGTC | 0.0771
AGCACCAT | 0.0874
